The supplement of paper PMC11369174, “Proteome-scale characterisation of motif-based interactome rewiring by disease mutations” (Molecular Systems Biology, 2024)
Changes are numbered by the printed parent chain. Numbers in names are those of the source. The list shows a part of the results. The data scatter; read single values as rough.

B1: R398W R398W (peptide)
chain: EDSERRRNHNILERQRRNDLWSSFLTLRDHVPELVKNEKAA
B2: R60L R60L (peptide)
chain: ASNLLALSVLAGARQGGSHTLSSFLTFLCGLVLTDFLGLLV
B3: M330V M330V (peptide)
chain: VLSSELPEDDRELFEDLLRQVSDLRLQANWNRAEEENEFQI
B4: P59H P59H (peptide)
chain: TDRIISQCGRLIAGGSLSSTHMSTPCSSVPPSPSFSAPSPG
B5: P59L P59L (peptide)
chain: B4 chain with H21L
B6: P63R P63R (peptide)
chain: ISQCGRLIAGGSLSSTPMSTRCSSVPPSPSFSAPSPGSGSE
B7: P69R P69R (peptide)
chain: LIAGGSLSSTPMSTPCSSVPRSPSFSAPSPGSGSEQKAHLE
B8: T58A T58A (peptide)
chain: ETDRIISQCGRLIAGGSLSSAPMSTPCSSVPPSPSFSAPSP
B9: T58I T58I (peptide)
chain: B8 chain with A21I
B10: T62R T62R (peptide)
chain: IISQCGRLIAGGSLSSTPMSRPCSSVPPSPSFSAPSPGSGS
B11: D841H D841H (peptide)
chain: GYRILGAVAKVREAFQPQEPHFPPPPPDLEQLRLTDELAPP
B12: P26L P26L (peptide)
chain: SASVAPRTAAEPRSPGPVPHLAQSKATEAGGGNPSGIYSAI
B13: P431L P431L (peptide)
chain: PSGGGGGGGQQRAGDWKCPNLTCENMNFSWRNECNQCKAPK
B14: V1286A V1286A (peptide)
chain: VWASLRSSTRLISSPTSFIDAGARLAGKDHSASFSNSSYLQ
B15: R19396C R19396C (peptide)
chain: AIPERRMKVQNLLPDHEYQFCVKAENEIGIGEPSLPSRPVV
B16: G78W G78W (peptide)
chain: AGPGDGRPNLRMKFQGAFRKWVPNPIDLLESTLYESSVVPG
B17: E1588K E1588K (peptide)
chain: APPELVPMKVKEPEPQYFRFKGVWLTETGMALLRNLTMSPL
B18: S214A S214A (peptide)
chain: PEHFPFPAPANAPLQRIRSTATPNVHMVSTTAPMDSNLIQL
B19: S214F S214F (peptide)
chain: B18 chain with A21F
B20: I1634T I1634T (peptide)
chain: QSLTMTAEQKESELIELRETTEMLKAQNSAAQAAIQGALNG
B21: T3464I T3464I (peptide)
chain: KVSIPLTEGLDLISMLTDDAIIAAWNNEGLPSDRMSTENAA
B22: A3421V A3421V (peptide)
chain: LEGDNMETPVTLINFWPVDSVPASSPQLSHDDTHSRIEHYA
B23: S323L S323L (peptide)
chain: TNIETELRPSNNLNLLSFEDLTTGGVQQKQIREHEVLIHVE
B24: C48F C48F (peptide)
chain: DDEPDHGPLGAPEGDHDLLTFGQCQMNFPLGDILIFIEHKR
B25: Y65C Y65C (peptide)
chain: LEGLPPSWYKVFDPSCGLPYCWNADTDLVSWLSPHDPNSVV

Biological target: T1, AURKA_Pkinase-merged__O14965_125_391
T1 chain: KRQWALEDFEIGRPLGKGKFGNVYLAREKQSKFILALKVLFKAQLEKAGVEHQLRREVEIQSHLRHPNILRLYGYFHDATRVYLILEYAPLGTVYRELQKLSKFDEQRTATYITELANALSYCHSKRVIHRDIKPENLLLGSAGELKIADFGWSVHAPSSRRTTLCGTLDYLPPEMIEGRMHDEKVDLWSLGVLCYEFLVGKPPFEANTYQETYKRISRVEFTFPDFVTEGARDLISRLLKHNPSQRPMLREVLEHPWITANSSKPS
Assay: mutation enrichment score (mutant vs wild-type peptide binding to bait); baits are purified protein domains named by gene / domain / UniProt id / residues; peptides come from disordered regions of human proteins; higher = mutation enhances binding relative to wild type
Conditions: number of wild-type / mutant comparisons summed (bounds the score): 6; paper call: no_effect; wild-type window: …
For B1, the mutation enrichment score was 4.

Biological target: T2, Bub1_TPR__O43683_1_150
T2 chain: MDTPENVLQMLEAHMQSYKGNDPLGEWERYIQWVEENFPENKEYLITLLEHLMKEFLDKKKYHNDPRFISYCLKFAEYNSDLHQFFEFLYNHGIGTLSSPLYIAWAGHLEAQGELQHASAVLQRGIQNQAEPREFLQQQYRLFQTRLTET
Assay: as above
Conditions: number of wild-type / mutant comparisons summed (bounds the score): 6; paper call: no_effect; wild-type window: …
With B2 the mutation enrichment score was 3.
B3 gave a mutation enrichment score of -5.

These binders were tested against CBX3_CHROMO-Shadow__Q13185_109_173 in the same assay as above. Conditions: number of wild-type / mutant comparisons summed (bounds the score): 6; paper call: no_effect; wild-type window: ….
B4 was tested, and the mutation enrichment score was -2.
B5 was tested, and the mutation enrichment score was -2.
B6 gave a mutation enrichment score of -2.
With B7 the mutation enrichment score was -2.
B8 was tested, and the mutation enrichment score was -2.
Binder B9 has a mutation enrichment score of -2.
B10 was tested, and the mutation enrichment score was -2.
B11 gave a mutation enrichment score of -2.
With B12 the mutation enrichment score was 2.
B13 was tested, and the mutation enrichment score was 2.
B14 was tested, and the mutation enrichment score was -4.
For B15, the mutation enrichment score was 2.
For B16, the mutation enrichment score was 2.

Same assay, conditions: number of wild-type / mutant comparisons summed (bounds the score): 12; paper call: no_effect; wild-type window: …
B17 showed a mutation enrichment score of 4.3.

Biological target: T3, GEF_Sec7__Q9Y6D5_639_829
T3 chain: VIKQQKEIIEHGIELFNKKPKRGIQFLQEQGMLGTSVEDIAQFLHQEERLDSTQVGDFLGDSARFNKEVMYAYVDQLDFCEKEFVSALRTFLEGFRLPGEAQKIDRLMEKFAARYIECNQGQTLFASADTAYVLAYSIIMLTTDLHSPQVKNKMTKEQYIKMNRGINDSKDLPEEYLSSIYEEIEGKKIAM
Assay: as above
Conditions: number of wild-type / mutant comparisons summed (bounds the score): 6; paper call: no_effect; wild-type window: …
Work on B17 yielded a mutation enrichment score of -5.9.

Biological target: T4, PEX14_Pex14__O75381_16_84
T4 chain: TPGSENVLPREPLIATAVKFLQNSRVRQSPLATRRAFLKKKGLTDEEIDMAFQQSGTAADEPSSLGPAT
Assay: as above
Conditions: number of wild-type / mutant comparisons summed (bounds the score): 12; paper call: no_effect; wild-type window: …
In the case of B17, the mutation enrichment score is reported as -4.

Biological target: T5, CHD1_tandem-chromo__O14646_268_443
T5 chain: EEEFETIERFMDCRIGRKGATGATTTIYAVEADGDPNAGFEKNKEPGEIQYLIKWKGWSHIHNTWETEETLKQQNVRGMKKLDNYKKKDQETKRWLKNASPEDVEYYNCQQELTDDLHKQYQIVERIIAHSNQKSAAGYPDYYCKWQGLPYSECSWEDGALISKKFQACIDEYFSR
Assay: as above
Conditions: number of wild-type / mutant comparisons summed (bounds the score): 5; paper call: no_effect; wild-type window: …
B18 showed a mutation enrichment score of -1.4.
Binder B19 has a mutation enrichment score of -4.

Biological target: T6, CLTC_Clathrin-propeller__Q00610_1_364
T6 chain: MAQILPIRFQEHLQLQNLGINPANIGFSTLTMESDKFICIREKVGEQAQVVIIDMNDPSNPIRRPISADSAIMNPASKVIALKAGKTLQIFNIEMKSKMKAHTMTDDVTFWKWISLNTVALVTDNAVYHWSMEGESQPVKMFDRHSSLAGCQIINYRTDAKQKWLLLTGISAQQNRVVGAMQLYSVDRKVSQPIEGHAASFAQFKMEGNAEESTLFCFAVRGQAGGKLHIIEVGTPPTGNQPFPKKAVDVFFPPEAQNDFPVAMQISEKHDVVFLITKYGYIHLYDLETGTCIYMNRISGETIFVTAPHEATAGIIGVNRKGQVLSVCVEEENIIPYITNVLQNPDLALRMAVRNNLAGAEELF
Assay: as above
Conditions: number of wild-type / mutant comparisons summed (bounds the score): 6; paper call: enhanced; wild-type window: …
Work on B20 yielded a mutation enrichment score of 6.

These binders were tested against USP7_MATH-TRAF__Q93009_53_206 in the same assay as above. Conditions: number of wild-type / mutant comparisons summed (bounds the score): 5; paper call: no_effect; wild-type window: ….
Chain of USP7_MATH-TRAF__Q93009_53_206 (chain, as listed by the source): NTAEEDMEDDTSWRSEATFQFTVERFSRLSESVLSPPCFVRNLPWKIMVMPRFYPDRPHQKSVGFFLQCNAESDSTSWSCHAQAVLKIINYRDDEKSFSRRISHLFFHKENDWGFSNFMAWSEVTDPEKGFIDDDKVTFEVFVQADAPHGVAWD
B20 was tested, and the mutation enrichment score was -2.

Biological target: T6, CLTC_Clathrin-propeller__Q00610_1_364
Assay: as above
Conditions: number of wild-type / mutant comparisons summed (bounds the score): 6; paper call: no_effect; wild-type window: …
B21 was tested, and the mutation enrichment score was 5.

Same assay, conditions: number of wild-type / mutant comparisons summed (bounds the score): 12; paper call: enhanced; wild-type window: …
B22 was tested, and the mutation enrichment score was 12.
For B23, the mutation enrichment score was 6.4.
With B24 the mutation enrichment score was 12.

Biological target: T7, G3BP2_NTF2_1_Q9UN86_1_139
T7 chain: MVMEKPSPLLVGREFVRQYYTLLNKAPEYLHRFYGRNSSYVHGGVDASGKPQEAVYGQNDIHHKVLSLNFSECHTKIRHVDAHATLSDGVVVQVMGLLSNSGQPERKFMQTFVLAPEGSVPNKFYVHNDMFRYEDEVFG
Assay: as above
Conditions: number of wild-type / mutant comparisons summed (bounds the score): 12; paper call: enhanced; wild-type window: …
Work on B24 yielded a mutation enrichment score of 10.

Biological target: T6, CLTC_Clathrin-propeller__Q00610_1_364
Assay: as above
Conditions: number of wild-type / mutant comparisons summed (bounds the score): 12; paper call: no_effect; wild-type window: …
Binder B25 has a mutation enrichment score of 0.94.

Biological target: T8, GGA1_VHS__Q9UJY5_1_157
T8 chain: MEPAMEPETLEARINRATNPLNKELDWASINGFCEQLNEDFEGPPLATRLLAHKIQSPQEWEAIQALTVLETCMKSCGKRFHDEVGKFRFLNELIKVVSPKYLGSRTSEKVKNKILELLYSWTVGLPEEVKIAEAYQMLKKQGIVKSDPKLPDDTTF
Assay: as above
Conditions: number of wild-type / mutant comparisons summed (bounds the score): 10; paper call: no_effect; wild-type window: …
Work on B25 yielded a mutation enrichment score of 2.3.

Biological target: T9, GGA3_VHS__Q9NZ52_1_166
T9 chain: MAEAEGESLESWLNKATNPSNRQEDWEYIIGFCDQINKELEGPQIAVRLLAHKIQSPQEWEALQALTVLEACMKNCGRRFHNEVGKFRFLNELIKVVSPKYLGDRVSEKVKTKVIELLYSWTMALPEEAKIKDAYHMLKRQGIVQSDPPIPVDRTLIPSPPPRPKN
Assay: as above
Conditions: number of wild-type / mutant comparisons summed (bounds the score): 6; paper call: no_effect; wild-type window: …
B25 was tested, and the mutation enrichment score was -5.

Biological target: T10, PDZK1_PDZ_2_Q5T2W1_132_224
T10 chain: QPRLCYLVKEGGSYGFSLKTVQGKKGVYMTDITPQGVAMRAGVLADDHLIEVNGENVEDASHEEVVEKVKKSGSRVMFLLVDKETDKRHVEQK
Assay: as above
Conditions: number of wild-type / mutant comparisons summed (bounds the score): 6; paper call: no_effect; wild-type window: …
B25 showed a mutation enrichment score of -6.

Biological target: T11, RDX_FERM_1_P35241_5_295
T11 chain: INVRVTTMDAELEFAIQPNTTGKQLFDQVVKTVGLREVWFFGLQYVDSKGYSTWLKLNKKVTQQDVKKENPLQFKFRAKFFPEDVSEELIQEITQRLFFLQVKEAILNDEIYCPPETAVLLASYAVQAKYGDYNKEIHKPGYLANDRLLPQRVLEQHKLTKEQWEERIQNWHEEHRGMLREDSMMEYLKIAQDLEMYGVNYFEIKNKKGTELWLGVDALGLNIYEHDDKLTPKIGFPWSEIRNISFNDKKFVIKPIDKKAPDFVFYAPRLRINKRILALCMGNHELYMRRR
Assay: as above
Conditions: number of wild-type / mutant comparisons summed (bounds the score): 6; paper call: no_effect; wild-type window: …
For B25, the mutation enrichment score was 2.
